± gives the standard deviation of the averaged measurements. This is one part of the list.
system: PfAP2-G AP2 domain (GST-tagged); assay: gcPBM binding intensity (ln(normalized median fluorescence intensity)); higher = stronger DNA binding
Summary of the method: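 Probes on an Agilent 4 × 180k array were primer-extended, double-stranded and 36 bp long, taken from intergenic genomic regions, with negative controls added. GST-tagged P. falciparum DNA-binding domains from E. coli, about 25 μg on average, were applied to the array for 1 h in 1× PBS containing 1% milk, 0.2 mg/ml BSA, 0.5% salmon testes DNA and 0.03% Triton X-100. Binding intensity, obtained after Alexa488 anti-GST antibody detection and a 488 nm scan, is the highest Masliner-normalised natural-log median intensity across replicate spots of either probe orientation.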

Sequence | gcPBM binding intensity (ln)
ATACATATATATAATACACACATAAATGTAACATTT [CACACA_site3518] | 10.06 ± 0.064
ATAGAATCTGGTAGCTGTACGAGTCGTAGAGTGTAG [XGTACX_site2016] | 11.4 ± 0.98
ATATATTAAAAGGATTAGGAAAAAATATGATTTATC [TGCATGCA_negctrl_site405] | 9.57 ± 0.34
AAGTAAAAAAAAAAAAGTACATGTTTATATAAATAT [XGTACX_site4741] | 11.4 ± 0.73
ATCCCCATAAAAAATACACACAAATATTTATACATA [CACACA_site1001] | 9.96 ± 0.11
ATTACGATAGAGAAATGTACATATATATATGTAAGT [XGTACX_site1200] | 10.9 ± 0.36
TATTTTATAAATTAATGTACATAAATTATATCTACT [XGTACX_site3625] | 11.2 ± 0.69
TCATAAATACATTTTGCATGTAAAATATAGAATACA [TGCATGCA_site755] | 9.75 ± 0.071
TCTATAAAATATAAAAGTACGTATCAATAATTAAAA [XGTACX_site8469] | 11.2 ± 0.49
GATCAAAATTATAGAAGTACTTTATATAAATAAAAT [XGTACX_site8161] | 11.2 ± 0.82
TATATATATAAGATTGTGCACATTAAAATGATAGAA [GTGCAC_site9621] | 10.4 ± 0.29
AATAATGTTTTTATATCACACACAAATATTAAATGA [CACACA_site8074] | 9.995 ± 0.064
CAAAATAAATAATTTGGTACACATAAAAAAAAAAAA [XGTACX_site8380] | 11.1 ± 0.8
TGATAAGAAAAAGACTTTTCCTTCTTACTTTCTATG [CACACA_negctrl_site782] | 9.64 ± 0.27
CCATAAAACTATAATACACACATATAGATTAACATA [CACACA_site7849] | 10 ± 0.13
AAAATTGGTGAAAATGAAAATATGATTATATGTATA [XGTACX_negctrl_site505] | 9.61 ± 0.33
CCATAAAAAGGTACATGTACAAAAAGCAAAAATATG [XGTACX_site5543] | 11.6 ± 0.91
ATATTTTTCCAACATCGTACATTATGAGTCAAAATT [XGTACX_site993] | 10.9 ± 0.4
TTTATATATAATGTTGCATGTCAAATTTGTATATGG [TGCATGCA_site246] | 10.1 ± 0.24
TGTTCTTATACTAATAGTACTTTTAGGTACTATAAA [XGTACX_site2954] | 11.2 ± 0.83
TGTAGACATTAATGTAGTACAATATATATATATATT [XGTACX_site8608] | 11.5 ± 1.1
AATTTAATTTTTTCGTGTACTTATATAGGAGGTTTT [XGTACX_site8310] | 11.4 ± 0.95

Sequence | gcPBM binding intensity (ln)
CAATTAAAGATATGAACACACATGTGAACTTTCTAT [CACACA_site7796] | 10.04 ± 0.035
TTTCTTATCAACCTTTTTTTTTTTTTTTTATTCTTA [TGCATGCA_negctrl_site162] | 9.69 ± 0.028
CCCATATTATAGGTGTGTACATAAAAGTATATATAA [XGTACX_site3629] | 11.6 ± 0.95
AGAAGAAATATGTAAAAAATTTTATATTCACACACA [GTGCAC_negctrl_site441] | 10.03 ± 0.099
AAAAAAAAAAAAAAAAAAAAAAAAAAAAAATATATA [GTGCAC_negctrl_site6] | 11.1 ± 0.62
TTAGGGATGCTGAAATGTACACATTTAAATTATATA [XGTACX_site3000] | 11.2 ± 0.86
AACTCATCTTATAATTGTACATATTTATAAAAAGTA [XGTACX_site6522] | 11.2 ± 0.79
TGTAGAAATGGGTGCACACACATATATAATATATAT [CACACA_site2507] | 10.7 ± 0.61
CGTACTAACATAAAGACACACACCACATATAATAAA [CACACA_site3603] | 10.3 ± 0.23
ATTGTCTTCCTTCTGGTGCGATGTATAGGTAAAGAT | 10.2 ± 0.21
AATGTAAAACTAATATGTACATATCTCTAAAGAAAT [XGTACX_site8429] | 11 ± 0.57
TAAAAGTGATATGTTCGTACGTATTTATATGTAATA [XGTACX_site211] | 11.1 ± 0.57
TGTGTATACTTGTGTATACCAAATTAAAGACGCTTT [CACACA_negctrl_site1359] | 10.2 ± 0.18
AAAAAATAAAAAAGGTGGTCATGTCACAAATACTTT [XGTACX_site7454] | 11.4 ± 0.93
GTATATATATATATATATATATATATATATATATAT [CACACA_negctrl_site609] | 9.84 ± 0.53
TCTCCATCTTATGAGACATGCACTTTTTATTTAATA [TGCATGCA_site121] | 10.2 ± 0.23
TTGTGTAAATGTTAAGTGCATTTGGTAAAATATAAA [GTGCAC_site9699] | 10.1 ± 0.17
AAAAAAAAAAAAAAAACACACATACCCATATATTTT [CACACA_site6013] | 10.29 ± 0.092
ATGATATGCAATTTAGTGCATAACAAAATTGGTATA | 9.895 ± 0.035
TCTTAATTTTTGAAGGTACACACTAATATATTAAAT [CACACA_site1191] | 11.2 ± 0.75
TATAAATGTATACAAGTGCATATTATTCACACATAA | 10.07 ± 0.085
ATAATCCTTAAACACACACACACACTAATAAATAAA [CACACA_site8052] | 10.2 ± 0.4

Sequence | gcPBM binding intensity (ln)
ATAAAAATTAAAGAATGTACACATATAATATATGTA [XGTACX_site8735] | 11.3 ± 0.83
AAAAGTTATAGACACACACACATATAAATATAGATT [CACACA_site6617] | 10.1 ± 0.16
TTGTTTCCTTAATATTCACACACATATATATAATAT [CACACA_site8553] | 10.2 ± 0.26
TATTATGACTTAAGTTGTACTGTTGAAAGAAGAAAA [XGTACX_site2985] | 10.9 ± 0.49
TTTTAAAAAAATAAATAAATAGAAAAAAAAAATAAA [TGCATGCA_negctrl_site579] | 9.6 ± 0.071
GGATATATTTTATGTACACACATATATAACGGATAT [CACACA_site4847] | 11.5 ± 1
TATCAATGGAAAATATATATTTGTATATATGTAATA [XGTACX_negctrl_site257] | 9.69 ± 0.071
CGTATAAATAAATACACACACATATAAATATGTAAA [CACACA_site6236] | 9.97 ± 0.17
TAATATATTGTAGATGCATGCATTAACTATTACAAA [TGCATGCA_site190] | 9.72 ± 0.085
GAAATTATTATATAAACACACATTTATTTTATTTTA [CACACA_site1957] | 9.63 ± 0.17
GTATTATACCATAATGCATGTTAACTTCAAAAGAAA [TGCATGCA_site839] | 10.07 ± 0.099
ACAAGCTTTCATAAGGTGCAATGATTTAACAAAAAA [GTGCAC_site9726] | 10.1 ± 0.24
AATTATTAGCGTGGTGTGCACAAAATTATGGACACA | 11.2 ± 0.67
TACGTGAAATTATATACACACATAAATATGTCTGTA [CACACA_site3122] | 9.77 ± 0.042
TATAAAAATAATATTACACACATGTAAAATGTCGGT [CACACA_site3264] | 9.965 ± 0.035
ACACATGACATCCGTTGTACAATCATCATAAAAATG [XGTACX_site5397] | 11.3 ± 0.76
AGCATTTATGAAAAATGTACACACATCAAATGCTTA [XGTACX_site8749] | 11.3 ± 0.88
AGCAACCCCCTAGCTACACACATATAGATATATATA [CACACA_site951] | 10.7 ± 0.4
AAAAAAATAAATAAATACATACATATATATATGTAT [GTGCAC_negctrl_site510] | 9.65 ± 0.22
AAAAAAAAAAAACACACACACAAAAAAAAATATATA [CACACA_site1105] | 9.75 ± 0.042
TTGCCCCAGGAGTTCACACACATAATAGATTGTCAC [CACACA_site726] | 10.3 ± 0.19
TATATATTATACACGTGTACACATTATAACAATATA [XGTACX_site7799] | 11.7 ± 0.77

Sequence | gcPBM binding intensity (ln)
TTTCCCTTAAATTAATGTACATAAATTGAAAATACC [XGTACX_site1602] | 11.3 ± 0.77
TAAAATTTTTTTGTTTGTACATATATATATATAATA [XGTACX_site5609] | 11 ± 0.52
TATTCTATAAATATATTTTTTTAATTTTTTATTTTA [CACACA_negctrl_site307] | 9.54 ± 0.099
ATATAAGAATTTAAGAGTACATTCACTTCAAATTTA [XGTACX_site2115] | 11.1 ± 0.88
TATGTAAAAAGAGAAAAAAAAAAGAACGATAATTTC [CACACA_negctrl_site946] | 9.71 ± 0.28
TTGTAATTCATTCAAATATAAAATAAATAAATATGA [CACACA_negctrl_site349] | 9.67 ± 0.11
AAAATGTGCTTTTCAGTGCAATTTTTTTTGTAATAA [GTGCAC_site9566] | 9.955 ± 0.021
TATTATTATTTTTTATGTACTAACGACAAAAATATT [XGTACX_site252] | 11.2 ± 0.86
AGGTGTATCATAAAATGTACATACATACATACATAA [XGTACX_site4479] | 11.3 ± 0.37
ATAACATAACATAATACACACATATAAAAAAGAAAT [CACACA_site3028] | 10.1 ± 0.18
ATATAATATATTTTCACACATATTTTATGATGATAA [CACACA_site5614] | 9.755 ± 0.007
AAAAAAAAAAAAAAAGGTACAGTAAAAAATTCCTCT [XGTACX_site5947] | 11.7 ± 0.98
AAATTTAATTTTATATCACACATTAAATTTTAATGG [CACACA_site4251] | 9.81 ± 0.12
AAATATAATAATATATGTACATATATATATATATAT [XGTACX_site6980] | 11.2 ± 0.72
AAAAAAATATATATATATATATATATATATATATAT [TGCATGCA_negctrl_site7] | 9.82 ± 0.79
CGTGGGAGCGGACACACACACACACCCATATATATA [CACACA_site4340] | 11.2 ± 0.85
ATACAAAAAAGAAGGACACACAGAAGTAACATGTTA [CACACA_site3074] | 11.4 ± 1
TAACATGATATATAATGTACATATAAGATATTTATA [XGTACX_site4383] | 10.9 ± 0.51
ATGAATTATATATTATGTACATATAATTAAAATATA [XGTACX_site7140] | 11.2 ± 0.8
TTTAAAAAAAAAAAAAAAAATTAAATGAATTATTAA [CACACA_negctrl_site1121] | 9.085 ± 0.007
TATGTATTAAATTTTACACACATGATTCTCTATATG [CACACA_site8720] | 9.98 ± 0.014
TATACATATTATATATGTACACATATTATATGTATA [XGTACX_site5851] | 11.3 ± 0.91
